Results: PubChem BioAssay AID1468 (National Center for Advancing Translational Sciences (NCATS), 2008)
Where “and” joins values, the source holds several entries; their conditions need not be identical. Equal values may be shown once. In all, about 280,000 compounds went through this assay and about 1,100 (0.39%) were called active. Inconclusive means that the source gave no clear call. Such entries were picked first, then a sample of the others. Calls come from the whole dose curve; as a rule, active = well fitted inhibition curve with a large enough effect; inconclusive = small, poorly fitted or top-dose-only effect, or effect the other way; inactive = flat fitted curve, though single readings scatter. Where the call is inconclusive, the potency comes from a doubtful curve fit.

Each compound was assayed against Microtubule-associated protein tau (Homo sapiens) (UniProt P10636) (assay: qHTS for Inhibitors of Tau Fibril Formation, Fluorescence Polarization). Settings: K18 P301L tau heparin fibrillization, Alexa594 FP, 6 h; series mostly up to 57.7 µM; activity, negative = inhibition: at the top concentration.
Chain of UniProt P10636 (P10636 whole entry, looked up): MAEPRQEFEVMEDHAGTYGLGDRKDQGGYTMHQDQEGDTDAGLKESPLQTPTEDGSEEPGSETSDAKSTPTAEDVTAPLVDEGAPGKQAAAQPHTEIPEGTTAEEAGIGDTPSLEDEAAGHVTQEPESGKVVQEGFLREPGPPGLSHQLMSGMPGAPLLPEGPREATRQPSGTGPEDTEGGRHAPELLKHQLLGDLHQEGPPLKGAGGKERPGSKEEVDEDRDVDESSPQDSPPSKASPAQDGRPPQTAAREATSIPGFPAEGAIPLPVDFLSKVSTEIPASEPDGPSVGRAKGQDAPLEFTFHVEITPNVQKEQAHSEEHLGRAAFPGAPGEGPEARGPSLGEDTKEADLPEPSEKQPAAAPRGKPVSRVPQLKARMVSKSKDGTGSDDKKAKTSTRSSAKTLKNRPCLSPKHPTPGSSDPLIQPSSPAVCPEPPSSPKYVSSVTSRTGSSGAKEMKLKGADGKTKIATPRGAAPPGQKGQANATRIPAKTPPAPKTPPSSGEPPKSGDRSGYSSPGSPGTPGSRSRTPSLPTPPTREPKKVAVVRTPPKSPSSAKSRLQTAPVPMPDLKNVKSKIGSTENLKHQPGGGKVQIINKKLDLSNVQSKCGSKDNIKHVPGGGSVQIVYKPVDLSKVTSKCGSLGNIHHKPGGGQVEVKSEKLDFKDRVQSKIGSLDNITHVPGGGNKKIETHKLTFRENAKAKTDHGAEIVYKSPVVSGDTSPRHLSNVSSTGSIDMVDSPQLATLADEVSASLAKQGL
Procedure, shortened: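 FP of Alexa 594-tau after heparin (20 uM) induction. Substrate: human K18 P301L, 15 uM unlabeled, 0.24 uM labeled. Buffer 100 mM sodium acetate pH 7. 6 hr, 37 C.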
% is set by controls: 0 for no effect and ±100 for the full control effect; potency is the fitted concentration of half-maximal effect; tags give direction and shape of the fitted curve.
Note: nearly all actives have a fitted effect of over 55% in size.

SMILES	Potency	activity, negative = inhibition
CCc1ccc(CNC(=O)c2cc3c(s2)-c2ccccc2OC3)cc1	inconclusive: 1.78 µM [inhibitor, partial curve, poor fit]	–
CCc1nnc2n1N(C(C)=O)C(c1ccc(C(C)(C)C)cc1)=C(C(C)=O)S2	–	inactive: -5.41%
COc1cc(NC(=O)CSc2nc3nc(C)c(Cc4ccccc4)c(C)n3n2)cc(OC)c1OC	inconclusive: 25.1 µM [activator, partial curve]	–
Cc1cccc(NC(=O)c2nc[nH]c2C(=O)N[C@@H](C)C(=O)OC(C)(C)C)c1	inconclusive: 28.2 µM [inhibitor, partial curve]	–
CCc1ccc(CNC(=O)c2cnc3sc(N(CC)CC)nn3c2=O)cc1	–	inactive: -3.85%
C/C=C/c1ccc(OCCCn2cncn2)c(OC)c1	–	inactive: -15.4%
COc1ccc(CCNC(=O)CSc2nc(O)c(C(C)C)c(=O)[nH]2)cc1OC	inconclusive: 0.112 µM [inhibitor, full curve, poor fit]	–
Cc1ccc(NC(=O)c2ccc(CN3CC(=O)N4CCCCC4C3=O)cc2)cc1C (stereo not drawn)	–	inactive: -6.61%
O=C(Nc1ccc(O)c(C(=O)O)c1)Oc1ccccc1	–	inactive: 2.02%
COC(=O)CN1C(=S)N(c2ccc(Cl)cc2)C(=O)C1CC(=O)Nc1ccc(F)cc1 (stereo not drawn)	inconclusive: 28.2 µM [inhibitor, single point]	–
Cc1onc(-c2ccccc2Cl)c1C(=O)NCc1nc(-c2ccc(C(F)(F)F)cc2)no1	inconclusive: 14.1 µM [inhibitor, partial curve]	–
COc1ccc(-c2ccc(C(c3c(C)[nH][nH]c3=O)c3c(C)[nH][nH]c3=O)o2)c([N+](=O)[O-])c1	inconclusive: 15.8 µM [inhibitor, partial curve]	–
Cc1ccc(/C=N/N2CCN(c3ccccn3)CC2)o1	–	inactive: 12%
CN(C)CC(CCCCC(CN(C)C)C(=O)c1ccccc1)C(=O)c1ccccc1 (stereo not drawn)	–	inactive: -9.37%
Cc1cc(/C=C(\C#N)C(=O)OCC(=O)Nc2ccc(OC(F)F)cc2)c(C)n1CC(C)C	inconclusive: 15.8 µM [inhibitor, single point]	–
COc1ccc(C)cc1NC(=O)c1nnn(Cc2cc(C)ccc2C)c1N	inconclusive: 35.5 µM [inhibitor, single point]	–
Cc1cc(C)cc(NS(=O)(=O)c2ccc3[nH]cc(C(=O)NCc4ccco4)c(=O)c3c2)c1	inconclusive: 7.94 µM [inhibitor, partial curve] and inconclusive: 28.2 µM [inhibitor, partial curve]	–
COc1ccc(C2CC(c3cccs3)=NN2C(=O)COC(=O)c2cc3ccccc3cc2O)cc1OC (stereo not drawn)	inconclusive: 6.31 µM [inhibitor, partial curve]	–
